Assay results published in PubChem BioAssay (NCATS).
Some of the results follow. These are further read-outs of the screen, such as a control signal, another cell line or another target. No call is given for them. Compounds called inactive in the main read-out are mostly missing here.

Test: qHTS Assay for Lipid Storage Modulators (AID 1519)
Settings: Drosophila S3 cells, BODIPY lipid droplet/cell ratio, laser cytometry; measured here: cell count channel max response; cells loaded with oleic acid
Summary of the method: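 Cells seeded at 5,000 per well were treated with compounds over a concentration series and loaded with oleic acid (400 uM, as added). Lipid droplet fluorescence (488 nm excitation, 500-530 nm channel) was read by laser-scanning cytometry and normalized to 20 uM Triacsin C.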

Row | SMILES | max response [%]
1 | CN(C)c1ncc2nc(-c3ccc(Cl)cc3)c(=O)n(Cc3cccs3)c2n1 | -0.397
2 | FC(F)(F)c1ccccc1-c1cncnc1NCc1cccnc1 | 37.3
3 | COc1cccc(-c2nccc(NCc3ccccc3OC)n2)c1 | 16.2
4 | CC(C)=CCc1c2c(c3occ(-c4ccc(O)c(O)c4)c(=O)c3c1O)C=CC(C)(C)O2 | -70.5
5 | CC(C)=CCCC(C)CCO (stereo not given) | 64
6 | O=C(c1cccc(F)c1)N1CCC2(CCCN(Cc3cc(C(F)(F)F)cc(C(F)(F)F)c3)C2)CC1 | 20.2
7 | CN(C)c1ncc2nc(CCc3ccccc3)c(=O)n(Cc3ccc(F)cc3)c2n1 | 17.4
8 | CC(=O)NCCNc1ccnc(-c2ccccc2C)n1 | 28.7
9 | CCNc1ncc2nc(-c3ccc(OC)cc3)c(=O)n(CCc3ccccc3)c2n1 | 31.4
10 | O=C(NC1CCN(Cc2ccccc2)CC1)c1ccc(I)cc1 | 104
11 | O=S(=O)(c1ccccc1)N1CCC[C@@]2(CCN(c3cccc(-c4ccccc4)c3)C2)C1 | 30.7
12 | COc1cccc(-c2cc(NCc3cccnc3)ncn2)c1 | 41.2
13 | COc1ccccc1CNc1nc(-c2ccoc2)nc2ccccc12 | 11.1
14 | COc1cc2c(C(=O)c3ccccc3)c3c4c(cc(OC)c(OC)c4c2cc1OC)CCN3C | -56.5
15 | COc1ccc2[nH]cc(CCNc3ncnc4ccc(-c5c(C)noc5C)cc34)c2c1 | 10.3
16 | O=c1c(-c2ccc(F)c(F)c2)nc2cncnc2n1-c1ccccc1 | 41.2
17 | O=c1c(-c2cc(F)cc(F)c2)nc2cnc(N3CCNCC3)nc2n1CCc1ccccc1 | 17.6
18 | COc1ncc2nc(CCc3ccccc3)c(=O)n(Cc3ccc(F)cc3)c2n1 | 16.6
19 | CN(C)C(=O)c1ccc(-c2nc(-n3ccnc3)c3ccccc3n2)cc1 | 30
20 | O=C1c2ccccc2S(=O)(=O)N1CCCCN1CCN(c2ncccn2)CC1 | 72.6

Row | SMILES | max response [%]
21 | O=c1cnc2cnc(Oc3ccccc3)nc2n1C[C@H]1CCCO1 | 24
22 | COc1ccc2c(c1OC)C(Cc1ccccc1)N1CCc3cc4c(cc3C1C2)OCO4 (stereo not given) | 54.8
23 | c1ccc(Nc2nc(-c3ccc4c(c3)OCO4)nc3ccccc23)cc1 | -4.42
24 | COc1ccccc1CNc1nc(-c2ccc(N(C)C)cc2)nc2ccccc12 | -65.7
25 | CC(C)N=c1cc2n(-c3ccc(Cl)cc3)c3ccccc3nc-2cc1Nc1ccc(Cl)cc1 | -86.4
26 | O[C@H](CCCN1CCN(c2ncc(F)cn2)CC1)c1ccc(F)cc1 | 59.3
27 | COc1cccc(Cn2c(=O)c(-c3ccc(Cl)cc3)nc3cnc(N4CCNCC4)nc32)c1 | -49.7
28 | CCNc1ncc2nc(-c3cn(C)c4ccccc34)c(=O)n(Cc3cccs3)c2n1 | 16.4
29 | Cc1ccccc1-c1ccc2ncnc(N3CCOCC3)c2c1 | -4.37
30 | COc1cc2c(C)c3c4c(cc(OC)c(OC)c4c2cc1OC)CCN3C | 64.7
31 | COc1ccc(-c2ccc(N)[n+](CCCC(=O)O)n2)cc1 | 41.3
32 | CSc1cc2c(cc1C(F)(F)F)N(C(=O)Nc1cccnc1)CC2 | 135
33 | Cc1cnc(CNc2nc(-c3ccoc3)nc3ccccc23)cn1 | 51.9
34 | COCCn1c(=O)c(-c2ccccc2)nc2cnc(Oc3cccc(Cl)c3)nc21 | 21.3
35 | CC[C@]1(O)C[C@@H]2CN(CCc3c([nH]c4ccccc34)[C@](C(=O)OC)(c3cc4c(cc3OC)N(C=O)[C@H]3[C@@](O)(C(=O)OC)[C@H](C(=O)OC)[C@@]5(CC)C=CCN6CC[C@]43[C@H]65)C2)C1 | 57.9
36 | COCCn1c(=O)c(-c2cccs2)nc2cnc(Oc3ccccc3)nc21 | 32.3
37 | COc1ccc(CNc2ncncc2-c2ccccc2C)c(OC)c1 | 16.5
38 | Clc1ccccc1-c1nc(Nc2ccncc2)c2ccccc2n1 | 22.3
39 | O=S(=O)(c1ccccc1)N1CCC[C@@]2(CCN(Cc3ccccc3)C2)C1 | 14.8
40 | COc1ccc(-c2oc3cc(OC)c(OC(C)=O)c(OC)c3c(=O)c2OC)cc1OC(C)=O | 61
